PubChem BioAssay AID1454 (National Center for Advancing Translational Sciences (NCATS), 2008)
The whole screen tested about 130,000 compounds, of which about 550 (0.42%) were called active. The inconclusive results got no clear call from the source; some entries with a clear call stand among them for comparison. Calls follow the shape of the dose curve; as a rule, active = well fitted inhibition curve with a large enough effect; inconclusive = small, poorly fitted or top-dose-only effect, or effect the other way; inactive = flat fitted curve, though single readings scatter. Potencies of inconclusive entries are left out as doubtful fits.

Test: qHTS Assay for Inhibitors of the ERK Signaling Pathway using a Homogeneous Screening Assay; Stimulation with EGF; also: nearly all actives have a fitted effect of over 55% in size;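 as to activity change, negative = inhibition: plate controls were stimulated vehicle wells for no effect and unstimulated vehicle basal for full effect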
Conditions: HEK293-V1b, EGF-stimulated phospho-ERK AlphaScreen; activity change, negative = inhibition: at the top concentration
Method in brief: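 Compounds are titrated over HEK293-V1b cells kept overnight in 1% FBS. After 30 min at 37C, EGF (25 nM final) triggers ERK phosphorylation for 5 min, measured by AlphaScreen in lysates.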
Potency is read from the fitted curve at half-maximal effect; tags tell the direction and shape of the fitted curve.

Structure (SMILES) | Potency | activity change, negative = inhibition
COc1ccc(O)c(/C=N/NC(=S)Nc2cccc(S(=O)(=O)N(C)C)c2)c1 | inconclusive [inhibitor, single point] | 
CCCSc1ccc2nc(-c3ccccc3)cn2c1 | inconclusive [inhibitor, single point] | 
Cc1ccc(NS(=O)(=O)c2ccc(C(=O)OCC(=O)Nc3cc(C)on3)cc2)cc1 | inconclusive [inhibitor, single point] | 
CC[C@H](C)[C@@H](NC(=O)O[C@@H]1Cc2cc(Br)ccc2O[C@H]1c1cccc(OC)c1)C(=O)OC |  | inactive: -7.72%
O=C(CCCCCCN1C(=O)c2ccccc2C1=O)N1CCC(c2ccccc2)C1 (stereo unspecified) | inconclusive [inhibitor, single point] | 
COc1cc(-c2nc3cnccn3c2Nc2ccccc2)ccc1O | inconclusive [inhibitor, single point] | 
O=C(CNC(=O)c1cccc(Br)c1)N/N=C/c1cc(Br)cc(Br)c1O | inconclusive [inhibitor, single point] | 
O=C(Nc1ccc(Nc2ccncc2)cc1)c1ccc(Nc2ccnc3ccc([N+](=O)[O-])cc23)cc1[N+](=O)[O-] | inconclusive [inhibitor, single point] | 
COc1ccc(N2C(=O)CC(Sc3nnnn3-c3ccc(F)cc3)C2=O)cc1 (stereo unspecified) |  | inactive: 6.23%
COc1ccc(/C=C/C(=O)N(Cc2ccccc2)c2ccccn2)cc1OC | inconclusive [activator, full curve] | 
CN(C)CCNC(=O)/C(=C/c1ccc(-c2ccc(Cl)cc2Cl)o1)NC(=O)c1ccccc1 | inconclusive [inhibitor, single point] | 
O=P(O)(O)CP(=O)(O)O | inconclusive [activator, full curve, poor fit] | 
Cc1cc(Nc2ccccc2)n2nc(C)c(-c3ccccc3)c2n1 | inconclusive [activator, partial curve] | 
CCOC(=O)C1(Cc2ccc(Cl)cc2)CCN(Cc2nccn2CC)CC1 | inconclusive [inhibitor, single point] | 
CN1CCN(C2=Nc3cc(F)ccc3Cc3ccccc32)CC1 | inconclusive [inhibitor, partial curve] | 
O=S(=O)(c1ccccc1)N1CCC2(CCCN(c3ccncc3)C2)CC1 |  | inactive: -2.21%
CCOC(=O)/C(C#N)=C1/C=C(C)c2ccccc2N1 | inconclusive [activator, single point] | 
Cc1ccc(Sc2ccc(CN3CCCCC3)cc2[N+](=O)[O-])cc1 | active: 10 µM | 
C=C1C(C2(C)C=CC(=O)C(C)(C)C2CC(=O)OC)CC[C@@]2(C)C(c3ccoc3)OC(=O)C3OC132 (stereo partly specified) |  | inactive: 28.6%
COc1ccc(S(=O)(=O)N(C)c2ccc(C(=O)NC3CCCC3)cc2)cc1 | inconclusive [inhibitor, single point] | 
O=C1CC(c2cccc(F)c2)c2c(c3ccccc3[nH]c2=O)O1 (stereo unspecified) | inconclusive [activator, full curve, poor fit] | 

Structure (SMILES) | Potency | activity change, negative = inhibition
CCCC1OC2CC3C4CCC5=CC(=O)C=CC5(C)C4C(O)CC3(C)[C@]2(C(=O)CO)O1 (stereo partly specified) |  | inactive: -1.03%
CC1CCCCN1C(=O)c1cccc(NC(=O)c2ccccc2)c1 (stereo unspecified) | inconclusive [activator, full curve] | 
CC(/C=N/NC(=O)CSc1nc2ccccc2n1C)=C\c1ccco1 | inconclusive [inhibitor, single point] | 
COc1ccc(C/C(N)=N/OC(=O)COc2ccccc2C)cc1 | inconclusive [activator, single point] | 
C=CCNC(=O)COC(=O)CCC(=O)c1cccs1 |  | inactive: -7.09% [at 57.5 µM]
CCOC(=O)N1N=C(CC)CC1(O)C(F)(F)F (stereo unspecified) |  | inactive: -2.11%
CCC(C)(C)c1ccc(OCCCC[n+]2ccc(C)cc2)c(C(C)(C)CC)c1 | inconclusive [inhibitor, partial curve] | 
NC[C@@H]1O[C@H](O[C@H]2[C@H](O)[C@H](O[C@@H]3O[C@H](CO)[C@@H](O)[C@H](N)[C@@H]3O)[C@@H](N)C[C@H]2N)[C@@H](O)[C@H](O)[C@@H]1O |  | inactive: 7.04% [at 25.7 µM]
COc1ccc(CCN(C)CCCN2CCc3cc(OC)c(OC)cc3CC2=O)cc1OC |  | inactive: -4.23%
CCOC(=O)CSc1nnc(NC(=O)c2cccc([N+](=O)[O-])c2C)s1 | inconclusive [inhibitor, full curve, poor fit] | 
Cc1ccc2nc(NC(=O)c3ccc(Cn4cc(Cl)cn4)o3)sc2c1 | inconclusive [inhibitor, single point] | 
NCCC[C@@H](CC(=O)N[C@@H]1CCNC[C@H]1C(=O)N[C@H](CC(=O)N[C@@H](CCC(=O)O)CC(=O)O)Cc1c[nH]c2ccccc12)NC(=O)C[C@H](Cc1c[nH]c2ccccc12)NC(=O)[C@@H]1CCCC[C@H]1N |  | inactive: -2.6%
O=[N+]([O-])c1ccc(N/N=C/c2cccc(O)c2O)c(S(=O)(=O)N2CCOCC2)c1 | inconclusive [inhibitor, single point] | 
O=C(COC(=O)C1CC2C=CC1C2)Nc1cccc(S(=O)(=O)N2CCCCCC2)c1 (stereo unspecified) | inconclusive [inhibitor, single point] | 
Cc1cc(C)c2ccc(/C=N/O)nc2c1O | inconclusive [inhibitor, single point] | 
CCC(=O)N1N=C(c2ccc(C)o2)CC1c1ccc(N(C)C)cc1 (stereo unspecified) | inconclusive [inhibitor, partial curve] | 
Cc1c(Cc2ccccc2)c(NCCN(C)C)n2c(nc3ccccc32)c1C#N | inconclusive [activator, single point] | 
Cc1cc(Cl)ccc1NC(=O)/C=N/O | inconclusive [inhibitor, full curve] | 
C(=N\N1CCN(Cc2cccc3ccccc23)CC1)/c1cccs1 | inconclusive [inhibitor, partial curve] | 
O=C(NC1CCCCCCC1)c1cc(COc2ccc3ncccc3c2)on1 | inconclusive [inhibitor, partial curve] | 
